# Experimental data: the supplement of paper PMC8728848
# Some of the results follow.
# B1: AFCNVH (Aspergillus fumigatus) (protein)
# chain: MSLRGFHTTCDTIVLKDKHILSSRCKRPDGTYSFSEIDLNDCLGNNNGKFVWGGESFVDSASQVNLALEGGEGRPMLHAQLNDWHGSVQSASVNLGECIQNEAGGLEYMHC
# How the values were obtained:
# Test in all cases: glycan array binding signal (z-score within array); higher = stronger binding
# Conditions in all cases: glycan notation: IUPAC condensed, linker removed
# [1] = molecular target: Fuc(a1-2)[GalNAc(b1-3)]Gal
# In short: (§1)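 Glycan array data came from 3228 arrays in the Consortium for Functional Glycomics database, and only arrays with an available protein sequence were kept. Glycan names were put into IUPAC-condensed notation, and columns mapping to the same glycan were averaged. The binding signal is a within-array Z-score, averaged across arrays of one protein sequence run at different concentrations or buffers and across linkers. A negative Z-score can be read as non-binding.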
# Fuc(a1-3)GlcNAc = molecular target: Fuc(a1-3)GlcNAc
# In short: as §1
# [2] = molecular target: Fuc(a1-3)[Gal(b1-4)]Glc6S
# In short: as §1
# [3] = molecular target: Fuc(a1-3)[Gal(b1-4)]GlcNAc
# In short: as §1
# [4] = molecular target: Fuc(a1-3)[Gal(b1-4)]GlcNAc(b1-2)Man
# In short: as §1
# [5] = molecular target: Fuc(a1-3)[Gal(b1-4)]GlcNAc(b1-2)Man(a1-3)[Fuc(a1-3)[Gal(b1-4)]GlcNAc(b1-2)Man(a1-6)]Man(b1-4)GlcNAc(b1-4)GlcNAc
# In short: as §1
# [6] = molecular target: Fuc(a1-3)[Gal(b1-4)]GlcNAc(b1-2)Man(a1-3)[Fuc(a1-3)[Gal(b1-4)]GlcNAc(b1-2)Man(a1-6)]Man(b1-4)GlcNAc(b1-4)[Fuc(a1-6)]GlcNAc
# In short: as §1
# [7] = molecular target: Fuc(a1-3)[Gal(b1-4)]GlcNAc(b1-3)Gal(b1-3)[Fuc(a1-4)]GlcNAc
# In short: as §1
# [8] = molecular target: Fuc(a1-3)[Gal(b1-4)]GlcNAc(b1-3)Gal(b1-4)[Fuc(a1-3)]GlcNAc
# In short: as §1
# [9] = molecular target: Fuc(a1-3)[Gal(b1-4)]GlcNAc(b1-3)Gal(b1-4)[Fuc(a1-3)]GlcNAc(b1-3)Gal(b1-4)[Fuc(a1-3)]GlcNAc
# In short: as §1
# [10] = molecular target: Fuc(a1-3)[Gal(b1-4)]GlcNAc(b1-3)GalNAc
# In short: as §1
# [11] = molecular target: Fuc(a1-3)[Gal(b1-4)]GlcNAc(b1-6)GalNAc
# In short: as §1
# [12] = molecular target: Fuc(a1-3)[Gal(b1-4)]GlcNAc(b1-6)[Gal(b1-3)GlcNAc(b1-3)]Gal(b1-4)Glc
# In short: as §1
# [13] = molecular target: Fuc(a1-3)[Gal(b1-4)]GlcNAc6S
# In short: as §1
# [14] = molecular target: Fuc(a1-3)[Gal3S(b1-4)]Glc
# In short: as §1
# [15] = molecular target: Fuc(a1-3)[Gal3S(b1-4)]GlcNAc
# In short: as §1
# [16] = molecular target: Fuc(a1-3)[Gal3S(b1-4)]GlcNAc6S
# In short: as §1
# [17] = molecular target: Fuc(a1-3)[GalNAc(b1-4)]GlcNAc
# In short: as §1
# [18] = molecular target: Fuc(a1-3)[GalNAc(b1-4)]GlcNAc6S
# In short: as §1
# Fuc(a1-4)GlcNAc = molecular target: Fuc(a1-4)GlcNAc
# In short: as §1
# Fuc(b1-3)GlcNAc = molecular target: Fuc(b1-3)GlcNAc
# In short: as §1
# Gal(a1-2)Gal = molecular target: Gal(a1-2)Gal
# In short: as §1
# Gal(a1-3)Gal = molecular target: Gal(a1-3)Gal
# In short: as §1
# Gal(a1-3)Gal(b1-3)GlcNAc = molecular target: Gal(a1-3)Gal(b1-3)GlcNAc
# In short: as §1
# [19] = molecular target: Gal(a1-3)Gal(b1-3)GlcNAc(b1-2)Man
# In short: as §1
# [20] = molecular target: Gal(a1-3)Gal(b1-3)GlcNAc(b1-2)Man(a1-3)[Gal(a1-3)Gal(b1-3)GlcNAc(b1-2)Man(a1-6)]Man(b1-4)GlcNAc(b1-4)GlcNAc
# In short: as §1
# [21] = molecular target: Gal(a1-3)Gal(b1-3)GlcNAc(b1-3)GalNAc
# In short: as §1
# [22] = molecular target: Gal(a1-3)Gal(b1-3)GlcNAc(b1-6)GalNAc
# In short: as §1
# [23] = molecular target: Gal(a1-3)Gal(b1-3)[Fuc(a1-4)]GlcNAc(b1-2)Man(a1-3)[Gal(a1-3)Gal(b1-3)[Fuc(a1-4)]GlcNAc(b1-2)Man(a1-6)]Man(b1-4)GlcNAc(b1-4)GlcNAc
# In short: as §1
# Gal(a1-3)Gal(b1-4)Glc = molecular target: Gal(a1-3)Gal(b1-4)Glc
# In short: as §1
# Gal(a1-3)Gal(b1-4)GlcNAc = molecular target: Gal(a1-3)Gal(b1-4)GlcNAc
# In short: as §1
# [24] = molecular target: Gal(a1-3)Gal(b1-4)GlcNAc(b1-2)Man
# In short: as §1
# [25] = molecular target: Gal(a1-3)Gal(b1-4)GlcNAc(b1-2)Man(a1-3)[Gal(a1-3)Gal(b1-4)GlcNAc(b1-2)Man(a1-6)]Man(b1-4)GlcNAc(b1-4)GlcNAc
# In short: as §1
# [26] = molecular target: Gal(a1-3)Gal(b1-4)GlcNAc(b1-3)GalNAc
# In short: as §1
# [27] = molecular target: Gal(a1-3)Gal(b1-4)GlcNAc(b1-6)GalNAc
# In short: as §1
# [28] = molecular target: Gal(a1-3)Gal(b1-4)[Fuc(a1-3)]GlcNAc
# In short: as §1
# [29] = molecular target: Gal(a1-3)Gal(b1-4)[Fuc(a1-3)]GlcNAc(b1-2)Man(a1-3)[Gal(a1-3)Gal(b1-4)[Fuc(a1-3)]GlcNAc(b1-2)Man(a1-6)]Man(b1-4)GlcNAc(b1-4)GlcNAc
# In short: as §1
# Gal(a1-3)GalNAc = molecular target: Gal(a1-3)GalNAc
# In short: as §1
# [30] = molecular target: Gal(a1-3)[Gal(a1-4)]Gal(b1-4)GlcNAc
# In short: as §1
# [31] = molecular target: Gal(a1-4)Gal(b1-3)GlcNAc(b1-2)Man(a1-3)[Gal(a1-4)Gal(b1-3)GlcNAc(b1-2)Man(a1-6)]Man(b1-4)GlcNAc(b1-4)GlcNAc
# In short: as §1
# Gal(a1-4)Gal(b1-4)Glc = molecular target: Gal(a1-4)Gal(b1-4)Glc
# In short: as §1
# Gal(a1-4)Gal(b1-4)GlcNAc = molecular target: Gal(a1-4)Gal(b1-4)GlcNAc
# In short: as §1
# [32] = molecular target: Gal(a1-4)Gal(b1-4)GlcNAc(b1-2)Man(a1-3)[Gal(a1-4)Gal(b1-4)GlcNAc(b1-2)Man(a1-6)]Man(b1-4)GlcNAc(b1-4)GlcNAc
# In short: as §1
# [33] = molecular target: Gal(a1-4)Gal(b1-4)GlcNAc(b1-3)Gal(b1-4)Glc
# In short: as §1
# Gal(a1-4)GlcNAc = molecular target: Gal(a1-4)GlcNAc
# In short: as §1
binder,measurement,setting,value
B1,glycan array binding signal (z-score),[1],-0.464
same,glycan array binding signal (z-score),Fuc(a1-3)GlcNAc,-0.326
same,glycan array binding signal (z-score),[2],-0.331
same,glycan array binding signal (z-score),[3],-0.303
same,glycan array binding signal (z-score),[4],-0.452
same,glycan array binding signal (z-score),[5],-0.414
same,glycan array binding signal (z-score),[6],-0.319
same,glycan array binding signal (z-score),[7],-0.304
same,glycan array binding signal (z-score),[8],-0.255
same,glycan array binding signal (z-score),[9],-0.509
same,glycan array binding signal (z-score),[10],-0.43
same,glycan array binding signal (z-score),[11],-0.537
same,glycan array binding signal (z-score),[12],-0.33
same,glycan array binding signal (z-score),[13],-0.372
same,glycan array binding signal (z-score),[14],-0.437
same,glycan array binding signal (z-score),[15],-0.558
same,glycan array binding signal (z-score),[16],-0.402
same,glycan array binding signal (z-score),[17],1.74
same,glycan array binding signal (z-score),[18],0.612
same,glycan array binding signal (z-score),Fuc(a1-4)GlcNAc,-0.222
same,glycan array binding signal (z-score),Fuc(b1-3)GlcNAc,-0.244
same,glycan array binding signal (z-score),Gal(a1-2)Gal,-0.275
same,glycan array binding signal (z-score),Gal(a1-3)Gal,-0.278
same,glycan array binding signal (z-score),Gal(a1-3)Gal(b1-3)GlcNAc,-0.453
same,glycan array binding signal (z-score),[19],-0.438
same,glycan array binding signal (z-score),[20],-0.55
same,glycan array binding signal (z-score),[21],-0.297
same,glycan array binding signal (z-score),[22],-0.422
same,glycan array binding signal (z-score),[23],-0.042
same,glycan array binding signal (z-score),Gal(a1-3)Gal(b1-4)Glc,-0.399
same,glycan array binding signal (z-score),Gal(a1-3)Gal(b1-4)GlcNAc,-0.087
same,glycan array binding signal (z-score),[24],-0.603
same,glycan array binding signal (z-score),[25],-0.229
same,glycan array binding signal (z-score),[26],-0.327
same,glycan array binding signal (z-score),[27],-0.361
same,glycan array binding signal (z-score),[28],-0.4
same,glycan array binding signal (z-score),[29],-0.335
same,glycan array binding signal (z-score),Gal(a1-3)GalNAc,-0.37
same,glycan array binding signal (z-score),[30],1.37
same,glycan array binding signal (z-score),[31],-0.157
same,glycan array binding signal (z-score),Gal(a1-4)Gal(b1-4)Glc,-0.428
same,glycan array binding signal (z-score),Gal(a1-4)Gal(b1-4)GlcNAc,0.107
same,glycan array binding signal (z-score),[32],-0.371
same,glycan array binding signal (z-score),[33],-0.082
same,glycan array binding signal (z-score),Gal(a1-4)GlcNAc,-0.404
